Test results as given in the supplement of paper PMC4604168 (melanoma cell lines).
Some of the results follow. Most values come without repeats; read them as rough.

Columns and labels:
Assay in all cases: cell count relative to DMSO control; melanoma cells; higher = more viable cells
Settings in all cases: library dose: low library concentration; 72 h
[1] = system: MZ2-MEL
[2] = system: MeWo
[3] = system: RPMI7951
[4] = system: RVH-421
[5] = system: SkMel28
[6] = system: SkMel2
[7] = system: SkMel30
[8] = system: SkMel5
[9] = system: UACC257
[10] = system: UACC62
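Further: cell number obtained by counting DAPI-stained nuclei in high-throughput microscope images with image analysis software, screen run in 1,536-well plates.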

Row | SMILES | cell count [1] | cell count [2] | cell count [3] | cell count [4] | cell count [5] | cell count [6] | cell count [7] | cell count [8] | cell count [9] | cell count [10]
1 | C[C@]1(O)C[C@@H](c2nc(-c3ccc4ccc(-c5ccccc5)nc4c3)c3c(N)nccn32)C1 + CO[C@@H]1[C@H](N(C)C(=O)c2ccccc2)C[C@H]2O[C@]1(C)n1c3ccccc3c3c4c(c5c6ccccc6n2c5c31)C(=O)NC4 [Midostaurin] (first compound 0.4 µM, partner dose 0.08 µM) | 92.7% | 93.3% | 104% | 94.7% | 93.5% | 81% | 112% | 94.4% | 75% | 87.1%
2 | CCN(CC)CCNC(=O)c1c(C)[nH]c(/C=C2\C(=O)Nc3ccc(F)cc32)c1C [sunitinib] + COc1cc2c(Oc3ccc4[nH]c(C)cc4c3F)ncnc2cc1OCCCN1CCCC1 [cediranib] (first compound 0.4 µM, partner dose 0.4 µM) | 104% | 94.5% | 91.7% | 102% | 76.4% | 95.3% | 82.3% | 104% | 96.4% | 88.1%
3 | CCN(CC)CCNC(=O)c1c(C)[nH]c(/C=C2\C(=O)Nc3ccc(F)cc32)c1C [sunitinib] + OCCn1cc(-c2cnc3nnn(Cc4ccc5ncccc5c4)c3n2)cn1 [PF04217903] (first compound 0.4 µM, partner dose 1 µM) | 104% | 88.3% | 108% | 123% | 94.9% | 124% | 76.2% | 114% | 87.5% | 81.3%
4 | COc1cc([C@@H]2c3cc4c(cc3[C@@H](O[C@@H]3O[C@@H]5CO[C@@H](C)O[C@H]5[C@H](O)[C@H]3O)[C@H]3COC(=O)[C@H]23)OCO4)cc(OC)c1O [etoposide] + CCN(CC)CCCCNc1ncc2cc(-c3cc(OC)cc(OC)c3)c(NC(=O)NC(C)(C)C)nc2n1 [PD173074] (first compound 0.02 µM, partner dose 0.1 µM) | 107% | 90.9% | 96.4% | 145% | 95.2% | 100% | 95.3% | 94.9% | 74.1% | 92.5%
5 | Cn1cnc2c(F)c(Nc3ccc(Br)cc3Cl)c(C(=O)NOCCO)cc21 [selumetinib] + c1cc(-c2cnn3cc(-c4ccc(OCCN5CCCCC5)cc4)cnc23)ccn1 [Dorsomorphin] (first compound 0.015 µM, partner dose 0.4 µM) | 97.1% | 105% | 98.9% | 80.5% | 86.2% | 88.4% | 84.9% | 118% | 104% | 85.9%
6 | C[C@]1(O)C[C@@H](c2nc(-c3ccc4ccc(-c5ccccc5)nc4c3)c3c(N)nccn32)C1 + O=C(Nc1ccccc1)c1cc([N+](=O)[O-])ccc1Cl [GW9662] (first compound 0.4 µM, partner dose 2 µM) | 93.2% | 82.9% | 93% | 83.6% | 80.2% | 85.7% | 81.6% | 84.1% | 100% | 82.5%
7 | CCN(CC)CCNC(=O)c1c(C)[nH]c(/C=C2\C(=O)Nc3ccc(F)cc32)c1C [sunitinib] + N#Cc1c(O)c2c(-c3ccc(-c4ccccc4O)cc3)csc2[nH]c1=O [A769662] (first compound 0.4 µM, partner dose 2 µM) | 104% | 75.1% | 113% | 118% | 91.9% | 116% | 104% | 93.6% | 87% | 97.8%
8 | CCN(CC)CCNC(=O)c1c(C)[nH]c(/C=C2\C(=O)Nc3ccc(F)cc32)c1C [sunitinib] + O=C(O)c1ccc(-c2c[nH]c3ncc(-c4ccccc4)cc23)cc1C1CCCC1 [GSK650394] (first compound 0.4 µM, partner dose 0.16 µM) | 106% | 93.1% | 102% | 97.9% | 83.5% | 99.2% | 77.9% | 95.4% | 97.8% | 94.6%
9 | Cn1cnc2c(F)c(Nc3ccc(Br)cc3Cl)c(C(=O)NOCCO)cc21 [selumetinib] + COc1ccc2c(c1)CCC1C2CCC2(C)C(NCCCCCCN3C(=O)C=CC3=O)CCC12 [U73122] (first compound 0.015 µM, partner dose 0.4 µM) | 89.9% | 84.5% | 91.2% | 65.9% | 95.9% | 73.9% | 63.3% | 116% | 89% | 66.8%
10 | CCN(CC)CCNC(=O)c1c(C)[nH]c(/C=C2\C(=O)Nc3ccc(F)cc32)c1C [sunitinib] + O=C(Nc1cccc(Cl)c1)Nc1ncc(CCNc2ncnc3ccsc23)s1 [SNS314] (first compound 0.4 µM, partner dose 0.0008 µM) | 106% | 83.3% | 98% | 117% | 77.9% | 110% | 78.8% | 108% | 71% | 73.6%
11 | C[C@]1(O)C[C@@H](c2nc(-c3ccc4ccc(-c5ccccc5)nc4c3)c3c(N)nccn32)C1 + COc1cc2ncnc(Nc3ccc(Oc4ccccc4)cc3)c2cc1OC [SrcI1] (first compound 0.4 µM, partner dose 2 µM) | 85.1% | 91.8% | 106% | 114% | 88% | 88.9% | 71.6% | 103% | 96.1% | 110%
12 | Cn1cnc2c(F)c(Nc3ccc(Br)cc3Cl)c(C(=O)NOCCO)cc21 [selumetinib] + O=C(O)C(=O)Nc1sc2c(c1C(=O)O)CCNC2 [TCS401] (first compound 0.015 µM, partner dose 1.66667 µM) | 94.2% | 93.2% | 120% | 110% | 81.3% | 83.6% | 83.5% | 103% | 98.8% | 66.8%
13 | C[C@]1(O)C[C@@H](c2nc(-c3ccc4ccc(-c5ccccc5)nc4c3)c3c(N)nccn32)C1 + O=C(CCCCCCC(=O)Nc1ccccc1)NO [vorinostat] (first compound 0.4 µM, partner dose 0.08 µM) | 98.8% | 93.8% | 100% | 101% | 63.1% | 90.2% | 91.9% | 68.9% | 65.9% | 73.7%
14 | COc1cc([C@@H]2c3cc4c(cc3[C@@H](O[C@@H]3O[C@@H]5CO[C@@H](C)O[C@H]5[C@H](O)[C@H]3O)[C@H]3COC(=O)[C@H]23)OCO4)cc(OC)c1O [etoposide] + O=C(Nc1ccccc1)c1cc([N+](=O)[O-])ccc1Cl [GW9662] (first compound 0.02 µM, partner dose 2 µM) | 90.1% | 85.8% | 84.1% | 96.6% | 97.8% | 84.5% | 107% | 100% | 86.1% | 68.8%
15 | COc1cc([C@@H]2c3cc4c(cc3[C@@H](O[C@@H]3O[C@@H]5CO[C@@H](C)O[C@H]5[C@H](O)[C@H]3O)[C@H]3COC(=O)[C@H]23)OCO4)cc(OC)c1O [etoposide] + O=C(O)C(=O)Nc1sc2c(c1C(=O)O)CCNC2 [TCS401] (first compound 0.02 µM, partner dose 1.66667 µM) | 91.7% | 87.1% | 97% | 114% | 80.2% | 87.5% | 76.5% | 96.6% | 87.2% | 73.7%
16 | COc1cc([C@@H]2c3cc4c(cc3[C@@H](O[C@@H]3O[C@@H]5CO[C@@H](C)O[C@H]5[C@H](O)[C@H]3O)[C@H]3COC(=O)[C@H]23)OCO4)cc(OC)c1O [etoposide] + Cc1cc([N+](=O)[O-])ccc1NS(=O)(=O)c1cc(Cl)ccc1Cl [FH535] (first compound 0.02 µM, partner dose 1 µM) | 98.9% | 96.8% | 89.3% | 101% | 89.8% | 98.9% | 95.8% | 90.4% | 97.6% | 82.8%
17 | Cn1cnc2c(F)c(Nc3ccc(Br)cc3Cl)c(C(=O)NOCCO)cc21 [selumetinib] + CN(NC(=O)CC(=O)NN(C)C(=S)c1ccccc1)C(=S)c1ccccc1 [STA4783] (first compound 0.015 µM, partner dose 0.006 µM) | 80.2% | 72.3% | 128% | 68.6% | 98.1% | 78.2% | 55.8% | 111% | 85.5% | 69.3%
18 | COc1cc([C@@H]2c3cc4c(cc3[C@@H](O[C@@H]3O[C@@H]5CO[C@@H](C)O[C@H]5[C@H](O)[C@H]3O)[C@H]3COC(=O)[C@H]23)OCO4)cc(OC)c1O [etoposide] + O=S(=O)(c1ccccc1)N(CC(F)(F)F)c1ccc(C(O)(C(F)(F)F)C(F)(F)F)cc1 [T0901317] (first compound 0.02 µM, partner dose 1.4 µM) | 91.9% | 69.7% | 78.6% | 93% | 89.4% | 93.6% | 86.6% | 89.9% | 76.4% | 80.4%
19 | C[C@]1(O)C[C@@H](c2nc(-c3ccc4ccc(-c5ccccc5)nc4c3)c3c(N)nccn32)C1 + OCCn1cc(-c2cnc3nnn(Cc4ccc5ncccc5c4)c3n2)cn1 [PF04217903] (first compound 0.4 µM, partner dose 1 µM) | 98.6% | 89.8% | 99.8% | 97.7% | 94.5% | 81.1% | 77% | 91.4% | 118% | 98%
20 | C[C@]1(O)C[C@@H](c2nc(-c3ccc4ccc(-c5ccccc5)nc4c3)c3c(N)nccn32)C1 + COc1cc(Nc2ncc(F)c(Nc3ccc4c(n3)NC(=O)C(C)(C)O4)n2)cc(OC)c1OC [Tamatinib] (first compound 0.4 µM, partner dose 0.4 µM) | 79.4% | 81.1% | 89.7% | 90.8% | 71.3% | 72.3% | 71.1% | 69.4% | 53.9% | 72.7%
21 | C[C@]1(O)C[C@@H](c2nc(-c3ccc4ccc(-c5ccccc5)nc4c3)c3c(N)nccn32)C1 + Cc1cc(N2CCOCC2)cc2[nH]c(-c3c(NC[C@@H](O)c4cccc(Cl)c4)cc[nH]c3=O)nc12 [BMS536924] (first compound 0.4 µM, partner dose 0.2 µM) | 97.5% | 86.2% | 102% | 97.7% | 101% | 71.4% | 102% | 99.6% | 72.4% | 103%
